From the supplement of paper PMC9446081
About 220 (0.56%) of roughly 39,000 compounds showed activity. This is one part of the list.

system: Escherichia coli K-12 BW25113; experiment: relative growth (OD600 normalised to plate interquartile mean) (fraction); higher = less growth inhibition, active = 0.2 or less; settings: 50 µM; LB; incubation time: overnight (16-24 h)
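Note: static incubation at 37 °C against the wild-type strain, values averaged over two biological replicates.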

**Q.** Which relative growth does the source give for Nc1ncccc1F here?
**A.** inactive: 1

**Q.** For O=C(O)c1cc(O)c2c(O)c3c(O[C@H]4O[C@H](CO)[C@@H](O)[C@H](O)[C@H]4O)cccc3c(-c3c4cc(C(=O)O)cc(O)c4c(O)c4c(O[C@H]5O[C@H](CO)[C@@H](O)[C@H](O)[C@H]5O)cccc34)c2c1, which relative growth is on record?
**A.** inactive: 1.15

**Q.** COc1ccc(CNC(=O)C[C@H]2C[C@@H]3c4cc(NS(=O)(=O)c5ccc(F)cc5)ccc4O[C@@H]3[C@@H](CO)O2)cc1 was tested. Which relative growth did it give?
**A.** inactive: 1.03

**Q.** For COc1cccc2c1C(=O)c1c(O)c3c(c(O)c1C2=O)CC(O)(C(C)=O)CC3OC1CC(N)C(O)C(C)O1.Cl (stereo not drawn), which relative growth is on record?
**A.** inactive: 1.03

**Q.** Which relative growth does the source give for C[C@H](CO)N1C[C@H](C)[C@H](CN(C)C(=O)Nc2ccc3c(c2)OCO3)Oc2cc(C#Cc3ccncc3)ccc2S1(=O)=O here?
**A.** inactive: 1.04

**Q.** Which relative growth does the source give for Cc1noc(C)c1S(=O)(=O)N(C)C[C@H]1Oc2c(NC(=O)C3CCOCC3)cccc2C(=O)N([C@H](C)CO)C[C@H]1C here?
**A.** inactive: 0.988

**Q.** How did the relative growth turn out when C[C@@H]1CCCCO[C@@H](CN(C)C(=O)Nc2ccc(C(F)(F)F)cc2)[C@@H](C)CN([C@H](C)CO)C(=O)c2cc(NC(=O)Nc3ccc(F)cc3)ccc2O1 was run?
**A.** inactive: 1

**Q.** With CC(C)CC#Cc1cnc2c(c1)C(=O)N([C@@H](C)CO)C[C@@H](C)[C@H](CN(C)S(=O)(=O)c1cn(C)cn1)O2 as the compound, how does the relative growth read?
**A.** inactive: 0.97

**Q.** C[C@@H]1CN([C@@H](C)CO)C(=O)c2cc(NC(=O)Cn3cnnn3)ccc2O[C@@H]1CN(C)C(=O)NC1CCCCC1 was tested. Which relative growth did it give?
**A.** inactive: 0.992

**Q.** How did the relative growth turn out when CO[C@H]1O[C@H](CO)[C@@H](OC(=O)Nc2ccc3c(c2)OCO3)[C@H](OC(=O)Nc2ccc3c(c2)OCO3)[C@@H]1OC(=O)Nc1ccc2c(c1)OCO2 was run?
**A.** inactive: 1

**Q.** With CC(C)(C)S(=O)N1Cc2cc(C(=O)NCc3ccc4c(c3)OCO4)nc(-c3cccc(-c4cccc(F)c4)c3)c2[C@H]1CCO (stereo partly drawn) as the compound, how does the relative growth read?
**A.** inactive: 1.04

**Q.** Which relative growth does the source give for C[C@@H]1CN([C@@H](C)CO)C(=O)c2cc(NC(=O)Nc3cccc4ccccc34)ccc2O[C@@H](C)CCCCO[C@@H]1CN(C)Cc1ccccc1 here?
**A.** inactive: 1.03

**Q.** For CC(=O)OCCn1c(=O)[nH]c(=O)c2nsnc21, which relative growth is on record?
**A.** inactive: 0.94

**Q.** Cc1cc(C(=O)Nc2cccc3c2O[C@@H](CN(C)S(=O)(=O)c2ccc(Cl)cc2)[C@H](C)CN([C@H](C)CO)C3=O)n(C)n1 was tested. Which relative growth did it give?
**A.** inactive: 0.999

**Q.** With CN1CCc2nc(C(=O)N[C@@H]3C[C@@H](C(=O)N(C)C)CC[C@@H]3NC(=O)C(=O)Nc3ccc(Cl)cn3)sc2C1 as the compound, how does the relative growth read?
**A.** inactive: 1.02

**Q.** Which relative growth does the source give for COc1cccc(NC(=O)N[C@H]2C=C[C@H](CC(=O)N3CCOCC3)O[C@H]2CO)c1 here?
**A.** inactive: 1.01

**Q.** How did the relative growth turn out when C[C@@H]1CN([C@@H](C)CO)C(=O)c2cccc(NC(=O)c3nc4ccccc4s3)c2O[C@H]1CN(C)C(=O)Nc1ccc(F)cc1 was run?
**A.** inactive: 1.03

**Q.** Which relative growth does the source give for C[C@H](CO)N1C[C@H](C)[C@@H](CN(C)S(=O)(=O)c2ccccc2)Oc2ncc(Br)cc2C1=O here?
**A.** inactive: 1

**Q.** Which relative growth does the source give for C[C@H](CO)N1C[C@H](C)[C@@H](CN(C)C(=O)Nc2ccccc2)OCCCC[C@H](C)Oc2ccc(NC(=O)Nc3ccccc3)cc2C1=O here?
**A.** inactive: 1

**Q.** How did the relative growth turn out when C[C@@H]1CCCCO[C@@H](CN(C)Cc2ccc(C(F)(F)F)cc2)[C@H](C)CN([C@@H](C)CO)C(=O)c2cc(NC(=O)NC3CCCCC3)ccc2O1 was run?
**A.** inactive: 0.965

**Q.** Which relative growth does the source give for CC(C)NC(=O)N(C)C[C@@H]1Oc2ccc(NC(=O)c3ccncc3)cc2CC(=O)N([C@H](C)CO)C[C@@H]1C here?
**A.** inactive: 0.979

**Q.** With O=C(C[C@@H]1C=C[C@H](NC(=O)C2CCC2)[C@@H](CO)O1)NCCCN1CCOCC1 as the compound, how does the relative growth read?
**A.** inactive: 0.998

**Q.** Which relative growth does the source give for CC1(C)Cc2cc(CN)ccc2O1 here?
**A.** inactive: 1.03

**Q.** For C[C@@H]1CN([C@H](C)CO)C(=O)c2cc(NC(=O)C3CCCCC3)ccc2O[C@@H](C)CCCCO[C@H]1CN(C)Cc1ccccc1, which relative growth is on record?
**A.** inactive: 1

**Q.** With O=c1c(O[C@@H]2O[C@H](CO)[C@H](O)[C@H](O)[C@H]2O)c(-c2ccc(O)c(O)c2)oc2cc(O)cc(O)c12 as the compound, how does the relative growth read?
**A.** inactive: 0.986

**Q.** Which relative growth does the source give for COc1ccc(C#Cc2ccc3c(c2)O[C@@H](CN(C)C(C)=O)[C@H](C)CN([C@H](C)CO)S3(=O)=O)cc1 here?
**A.** inactive: 0.986

**Q.** Which relative growth does the source give for CN(C)CC(=O)N[C@@H]1CC[C@@H](CCn2cc(CN(C)C)nn2)O[C@H]1CO here?
**A.** inactive: 1.01

**Q.** C[C@@H]1CN([C@@H](C)CO)C(=O)c2cc(NS(=O)(=O)c3ccc(F)cc3)ccc2O[C@@H](C)CCCCO[C@H]1CN(C)C(=O)C1CCCCC1 was tested. Which relative growth did it give?
**A.** inactive: 1.03

**Q.** For CN1CCN(C(=O)C[C@@H]2CC[C@H]3[C@@H](COC[C@H](O)CN3C(=O)C3CCCC3)O2)CC1, which relative growth is on record?
**A.** inactive: 0.927

**Q.** With C[C@@H]1CN([C@@H](C)CO)C(=O)Cc2cc(NC(=O)CCCCCC(=O)Nc3ccccc3N)ccc2O[C@H]1CN(C)S(=O)(=O)c1cn(C)cn1 as the compound, how does the relative growth read?
**A.** inactive: 0.969

**Q.** C[C@@H]1CN([C@H](C)CO)C(=O)c2cccc(NC(=O)NC3CCCCC3)c2O[C@@H]1CN(C)S(=O)(=O)c1cn(C)cn1 was tested. Which relative growth did it give?
**A.** inactive: 1.02

**Q.** CCS(=O)(=O)Nc1ccc2c(c1)C(=O)N(C)[C@H]1CC[C@@H](CC(=O)NCCCN3CCOCC3)O[C@H]1CO2 was tested. Which relative growth did it give?
**A.** inactive: 1.02

**Q.** With Cc1noc(C)c1S(=O)(=O)Nc1cccc2c1O[C@@H](CN(C)CC1CC1)[C@@H](C)CN([C@@H](C)CO)C2=O as the compound, how does the relative growth read?
**A.** inactive: 0.99

**Q.** C[C@H]1CN([C@@H](C)CO)S(=O)(=O)c2ccc(-c3ccncc3)cc2O[C@H]1CN(C)S(=O)(=O)c1ccccc1F was tested. Which relative growth did it give?
**A.** inactive: 0.98

**Q.** For Cc1ccc(S(=O)(=O)Nc2ccc3c(c2)C(=O)N([C@@H](C)CO)C[C@H](C)[C@@H](CN(C)C(=O)NC(C)C)O3)cc1, which relative growth is on record?
**A.** inactive: 1.02

**Q.** Which relative growth does the source give for Cc1noc(C)c1S(=O)(=O)Nc1ccc2c(c1)C(=O)N([C@H](C)CO)C[C@H](C)[C@@H](CN(C)C(=O)Nc1ccccc1)O2 here?
**A.** inactive: 0.984

**Q.** With C[C@H](CO)N1C[C@H](C)[C@H](CN(C)S(=O)(=O)c2cccs2)Oc2c(NC(=O)C3CC3)cccc2C1=O as the compound, how does the relative growth read?
**A.** inactive: 0.995

**Q.** With CCC1C(=O)OCC1Cc1cncn1C.O=[N+]([O-])O (stereo not drawn) as the compound, how does the relative growth read?
**A.** inactive: 1.03
